System: BC2 antibody
Assay: BiaCore binding of Factor IX/Factor VII constructs to immobilized BC2
Conditions: 200 nM construct, 25 mM MOPS pH 7.4, 0.15 M NaCl, 5 mM CaCl2
Procedure: A library of chimeric constructs composed of sequences of Factor IX spliced into the framework of the homologous protein Factor VII was constructed and used to map the epitope for the Factor IX BC2 mAb. See Cheung et al., Thromb. Res. 80, 419-427 (1995). Binding was measured using a BiaCore 2000 surface plasmon resonance device. The BC2 antibody was coupled directly to the chip using the NHS/EDC reaction. Binding was measured by 2 min of contact time at 20 uL/min with 200 nM of each of the given constructs in 25 mM MOPS, pH 7.4, 0.15 M NaCl, 5 mM CaCl2. Dissociation was monitored for 3 min using the same buffer with no protein. No binding was detected to the wild type construct in the presence of 50 mM EDTA.

Degree of Binding to BC2: No Binding
B1: VII-A/IX: chimeric Factor VII/Factor IX construct (protein)
chain: ANAFLEELRPGSLERECKEEQCSFEEAREIFKDAERTKLFWISYSDGDQCESNPCLNGGSCKDDINSYECWCPFGFEGKNCELDVTCNIKNGRCEQFCKNSADNKVVCSCTEGYRLAENQKSCEPAVPFPCGRVSVSQTSKLTRAETVFPDVDYVNSTEAETILDNITQSTQSFNDFTR[about 250 residues not listed]
